Measurements taken from the domain aggregation screens of Martell et al. (2025).

assay: soluble fraction after stress (log2 fold change); higher = more stays soluble; pooled small domains, quantitative proteomics; details: stress: 75 degC
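Note: 20 min heating vs room temperature control held 20 min.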

Sequence | soluble fraction (log2)
HMEETALAIGREVGYPVIIKAAGGGGGRGMRVVRNEAELAAAIALTKSEAGQFFKNDMVYMEKYL | 0.219
HMEGHVLRSPMVGTFYASSAPDKPAFVSVGQQVKEGETLAIIEAMKMFNPIEADKSGTIVAILG | 0.635
HMRRLQTIVYEKGLASTIKQARQMITHGHIFMNGHRVTVPGYLVTRAEESSIEFNPASPFTDEMHPM | -2.07
